Experimental data as given in PubChem BioAssay AID1768 (National Center for Advancing Translational Sciences (NCATS), 2009).
“And” between values parts separate entries of the source, which are not always exact repeats. Identical values can stand only once. Out of some 270,000 compounds screened, about 620 (0.23%) were called active. The inconclusive results got no clear call from the source; some entries with a clear call stand among them for comparison. Calls follow the shape of the dose curve; as a rule, active = well fitted inhibition curve with a large enough effect in the polarisation, with a control signal flat (not every such curve was filed as active); inconclusive = small, poorly fitted or top-dose-only effect, or effect the other way, or a change in a side signal; inactive = no such curve, though single readings can be large or run the other way; the % refers to the polarisation. Potencies of inconclusive entries are doubtful fits and often do not repeat. “Side channel” marks fits to a control or component signal instead of the main read-out.

Target: Menin (Homo sapiens) (UniProt O00255)
Experiment: qHTS Assay for Inhibitors Targeting the Menin-MLL Interaction in MLL Related Leukemias: Competition With Texas Red Labeled MLL-derived Mutant Peptide
Conditions: fluorescence polarization; series mostly up to 61.6 µM
Potency is read from the fitted curve at half-maximal effect; tags tell the direction and shape of the fitted curve or compound fluorescence and quenching.

Chain of UniProt O00255 (O00255 whole entry, looked up): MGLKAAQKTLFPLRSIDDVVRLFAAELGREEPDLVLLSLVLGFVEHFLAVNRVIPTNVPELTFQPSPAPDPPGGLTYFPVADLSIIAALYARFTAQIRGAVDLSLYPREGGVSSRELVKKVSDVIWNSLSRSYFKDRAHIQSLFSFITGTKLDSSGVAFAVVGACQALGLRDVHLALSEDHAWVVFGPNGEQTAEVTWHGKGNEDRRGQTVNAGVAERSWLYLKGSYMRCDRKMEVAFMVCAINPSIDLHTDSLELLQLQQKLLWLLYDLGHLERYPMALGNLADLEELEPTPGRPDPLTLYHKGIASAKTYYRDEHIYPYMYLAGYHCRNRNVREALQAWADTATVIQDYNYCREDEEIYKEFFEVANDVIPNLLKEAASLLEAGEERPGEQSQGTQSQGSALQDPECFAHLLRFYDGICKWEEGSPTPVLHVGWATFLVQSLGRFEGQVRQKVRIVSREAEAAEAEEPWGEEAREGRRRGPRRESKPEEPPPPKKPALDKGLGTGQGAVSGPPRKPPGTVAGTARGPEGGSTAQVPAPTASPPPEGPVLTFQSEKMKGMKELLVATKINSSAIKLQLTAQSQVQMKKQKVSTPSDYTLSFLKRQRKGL

| Compound | Potency |
| --- | --- |
| CC[n+]1cc(C)ccc1/C=C/c1ccc(N(C)C)cc1 | inconclusive: 14.1 µM [fluorescent, side channel, partial curve] |
| COc1cccc(NC(=O)CSc2nnc(-c3ccco3)c(-c3ccco3)n2)c1 | inconclusive: 25.1 µM [quencher, partial curve] |
| NC(=O)Cc1ccc(C(=O)c2ccc(Cl)cc2Cl)s1 | inconclusive: 25.1 µM [quencher, side channel, partial curve] |
| Cc1nn(-c2ccccc2)c2c1C(c1ccc(Br)s1)C(C#N)=C(N)O2 (configuration not stated) | inconclusive: 35.5 µM [quencher, side channel, single point] |
| CN(C)C1(CN=Cc2cc(Cl)cc([N+](=O)[O-])c2O)CCCCC1 | inconclusive: 17.8 µM [quencher, side channel, partial curve] |
| OCC1(CCCc2ccccc2)CCN(C2CCSCC2)CC1 | inactive |
| Clc1ccc(COn2c(-c3ccc(Cl)cc3)nc3ccccc32)cc1 | inconclusive: 39.8 µM [inhibitor, single point] |
| CC(C)(C)NC(=O)C1CCCN(S(=O)(=O)c2ccc(-n3cnnn3)cc2)C1 (configuration not stated) | inconclusive: 39.8 µM [quencher, single point] |
| COc1ccc(/C=C2\SC(=S)NC2=O)cc1OS(=O)(=O)c1ccc(NC(C)=O)cc1 | inconclusive: 10 µM [quencher, side channel, partial curve] |
| O=C(Oc1c(Cl)cc(Cl)c2ccccc12)N1CCCC1 | inconclusive: 3.16 µM [inhibitor, full curve, poor fit] |
| COC/C=C/C1=CC2=CC(=O)C(C)(OC(=O)c3cnc4ccccc4n3)C(=O)C2=CN1c1ccc(CO)cc1 (configuration not stated) | inconclusive: 14.1 µM [quencher, side channel, partial curve] |
| COc1ccc(C)cc1NC(=O)c1cccc(C(=O)Nc2cc(C)ccc2OC)n1 | inconclusive: 31.6 µM [inhibitor, single point] |
| O=C(C(=O)N1CC=C(c2ccccc2)CC1)c1c[nH]c2ccccc12 | inactive |
| Cc1nn(-c2ccccc2)c(Cl)c1/C=N/Nc1ccc(Cl)c(C(=O)O)c1 | inconclusive: 17.8 µM [quencher, side channel, partial curve] |
| O=c1[nH]c2ccccc2c(O)c1-c1cc2ccccc2oc1=O | inactive |
| CC1CN(S(=O)(=O)c2cccc(C(=O)OCc3cc(=O)oc4cc(O)ccc34)c2)CC(C)O1 (configuration not stated) | inconclusive: 31.6 µM [quencher, side channel, single point] |
| COc1ccccc1/C=C/C=N/Nc1cccc(C(=O)O)c1 | inconclusive: 31.6 µM [quencher, single point] |
| O=C(NC1CCCC1)C(c1ccncc1)N(C(=O)c1ccco1)c1ccccc1 (configuration not stated) | inconclusive: 44.7 µM [inhibitor, partial curve, poor fit] |
| O=C(/C=C/c1c[nH]c2ccccc12)c1ccccc1 | inconclusive: 14.1 µM [quencher, side channel, partial curve] |

| Compound | Potency |
| --- | --- |
| Clc1ccc(-c2nnc3sc(Cc4cccs4)nn23)cc1 | inconclusive: 3.16 µM [quencher, side channel, full curve] |
| CCN(CC)c1ccc(/C=N/NC(=O)c2ccc(O)cc2)cc1 | inconclusive: 17.8 µM [quencher, side channel, partial curve] and inconclusive: 14.1 µM [quencher, side channel, partial curve] |
| Cc1c(NC(=O)CN2C(=O)C3C4C=CC(C4)C3C2=O)c(=O)n(-c2ccccc2)n1C (configuration not stated) | inconclusive: 7.08 µM [inhibitor, single point] |
| CCOc1ccc(C(=O)/C=C/c2cn(CN3CCN(C)CC3)c3ccccc23)cc1 | inconclusive: 28.2 µM [quencher, side channel, partial curve] |
| Cc1ccccc1NC(=O)CSc1nc(N2CCCCC2)nc(N2CCCCC2)n1 | inconclusive: 0.794 µM [fluorescent, side channel, full curve] |
| COC(=O)c1sc(NC(=O)CSc2nncs2)c(C(=O)OC)c1C | inconclusive: 2.82 µM [quencher, side channel, full curve] |
| CCn1c(CCCc2ccc(OC)c(C)c2)n[nH]c1=S | inactive |
| COc1cc(C)c(S(=O)(=O)N2CCCC2)cc1C(C)C | inconclusive: 25.1 µM [fluorescent, side channel, single point] |
| CCn1c(CC(=O)Nc2ccc(C)cc2)nnc1SCC(=O)Nc1nc(C)cs1 | inconclusive: 39.8 µM [inhibitor, single point] |
| COc1ccc(CNCc2ccc3ccccc3c2)c(OC)c1 | inconclusive: 12.6 µM [inhibitor, partial curve] |
| CCCC(=O)c1ccc(N2CCN(C(=O)c3cccs3)CC2)c(F)c1 | inconclusive: 39.8 µM [inhibitor, single point] |
| COCC(C)N1CC(O)=C(c2nc(-c3ccc(Cl)cc3)cs2)C1=N (configuration not stated) | inconclusive: 20 µM [quencher, side channel, partial curve] |
| N=C1S/C(=C\c2ccco2)C(=O)N1c1ccc2c(c1)OCO2 | inconclusive: 35.5 µM [quencher, side channel, single point] |
| CCC(C)(C)NC(=O)C(c1ccc(OC)cc1)N(CCOC)C(=O)CCC(=O)Nc1nccs1 (configuration not stated) | inconclusive: 14.1 µM [fluorescent, side channel, partial curve] |
| CCCc1nc(NC2CCCCC2)c(C#N)c2c1COC(C)(C)C2 | inactive |
| CCOC(=O)C1=C(C)N(C2CCCCC2)C(=O)C1 | inactive |
| CCCn1c(-c2ccc(F)cc2)nc2c(NC3CCN(Cc4ccccc4)CC3)nc(C)nc21 | inactive |
| Cc1ccc(Nc2nc(Cl)c(C=O)s2)cc1Cl | inconclusive: 31.6 µM [quencher, side channel, single point] |
| O=C(Nc1ccc(OC(F)(F)F)cc1)Nc1cccc([N+](=O)[O-])c1 | inconclusive: 10 µM [quencher, side channel, partial curve] |

| Compound | Potency |
| --- | --- |
| O=C(O)c1ccc(N/N=C/c2cccc(F)c2)cc1 | inconclusive: 31.6 µM [quencher, side channel, single point] |
| O=C(O)c1cc(NC(=O)c2ccc([N+](=O)[O-])cc2)cc(NC(=O)c2ccc([N+](=O)[O-])cc2)c1 | inconclusive: 20 µM [quencher, side channel, single point] |
| CCOC(=O)c1nnn(-c2nonc2-n2cccc2)c1CN1CCC(C(=O)OCC)CC1 | inconclusive: 3.55 µM [fluorescent, side channel, full curve, poor fit] |
| CCc1ccc(C2CC(c3ccc(Cl)cc3)=NNC2=O)cc1 (configuration not stated) | inconclusive: 22.4 µM [fluorescent, side channel, single point] |
| O=C(O)c1ccc(N/N=C/c2cn(-c3ccccc3)nc2-c2cccs2)cc1 | inconclusive: 7.94 µM [quencher, side channel, partial curve] |
| CCn1c(SCc2ccc(C#N)cc2)nnc1-c1ccc(S(=O)(=O)N2CCCCC2)cc1 | inconclusive: 4.47 µM [inhibitor, partial curve] |
| O=C(N/N=C/c1ccncc1)C1CC1C(=O)N/N=C/c1ccncc1 (configuration not stated) | inconclusive: 17.8 µM [inhibitor, partial curve] |
| Cc1ccnc(NC(=O)C2CCN(S(=O)(=O)c3cccc4nonc34)CC2)c1 | inconclusive: 28.2 µM [quencher, side channel, single point] |
| O=C(/C=C/c1ccco1)NC(=S)Nc1ccc(O)c(-c2nc3ccccc3s2)c1 | inconclusive: 12.6 µM [quencher, side channel, partial curve] |
| Cc1ccc(OCC(=O)Nc2ccccc2N2CCOCC2)c(C)c1 | inconclusive: 14.1 µM [fluorescent, side channel, partial curve] |
| O=C(c1ccccc1)c1c2c(cc3sc4ccccc4[n+]13)-c1cccc3cccc-2c13 | inconclusive: 17.8 µM [inhibitor, single point] |
| Oc1ccccc1CNCC12CC3CC(CC(C3)C1)C2 | inconclusive: 35.5 µM [inhibitor, single point] |
| Cc1cc(Cl)cc(C)c1OCCOCCNCc1ccccc1 | inconclusive: 14.1 µM [inhibitor, partial curve] |
| CCn1c(SCCC(C)C)nnc1-c1c[nH]c2ccccc12 | inconclusive: 4.47 µM [fluorescent, side channel, full curve] |
| N#Cc1ccsc1NC(=O)COc1ccc(-c2nnco2)cc1 | inconclusive: 39.8 µM [quencher, side channel, single point] |
| CCn1cc(C(=O)NCc2ccccn2)c(=O)c2cc(S(=O)(=O)N3CCCCC3)ccc21 | inconclusive: 31.6 µM [fluorescent, side channel, partial curve] |
| COc1ccc(CCNC(=O)CCc2nnc(Cc3ccc4c(c3)OCO4)o2)c(OC)c1 | inconclusive: 25.1 µM [inhibitor, partial curve] |
| O=C(c1cnc(N2CCN(c3ncccn3)CC2)c2ccccc12)N1CCN(c2ccccn2)CC1 | inconclusive: 8.91 µM [fluorescent, side channel, partial curve] |
| CC(=O)N1CCOc2ccc(S(=O)(=O)N3CCN(c4cccc(C(F)(F)F)c4)CC3)cc21 | inactive |
